Assay results published in US10285962B2, “Glutarate compounds for treating ischemia-reperfusion injuries” (The Regents of the University of California, priority 2016, dated 2019).
Where two headings read alike, the source gives them in different places.

System: Isolated Langendorff perfused hearts
Set-up: dose or concentration left out as unconfirmed

O=C(O)CCC(=O)C(=O)O [α-KG, α-ketoglutarate]
Rate pressure product (RPP) recovery (after 5 minutes of reperfusion): about 70% | Rate pressure product (RPP) recovery (after 30 minutes of reperfusion): about 80% | left ventricle developed pressure (LVDP) compared to control (in KH buffer during 60 minutes reperfusion after 30 minutes ischemia): much higher
